Structures are written as SMILES. Over roughly 110,000 compounds, “z-score” has its median near -0.1; the highest 2% begin near 2. This is one part of the list. The source made the active and inactive calls.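 Rule for the calls: active = z-score in the third read window above 3 or below -3; inactive = the rest.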

Experimental findings from PubChem BioAssay AID488969 (Vanderbilt High Throughput Screening Facility, 2010) are described below.

The target of this experiment is Metabotropic glutamate receptor 8 (Rattus norvegicus) (UniProt P70579). Nature of the experiment: rat mGluR8 modulators via GIRK flux, primary screen, cell-based, thallium flux, HTS (AID 488969). As to conditions: HEK293 rat mGluR8, GIRK (G protein-gated inwardly rectifying potassium channel) thallium flux, FluoZin2; at 10 µM; stronger effect = higher value; submaximal glutamate (EC20) added with thallium.
Sequence of UniProt P70579 (P70579 whole entry, looked up): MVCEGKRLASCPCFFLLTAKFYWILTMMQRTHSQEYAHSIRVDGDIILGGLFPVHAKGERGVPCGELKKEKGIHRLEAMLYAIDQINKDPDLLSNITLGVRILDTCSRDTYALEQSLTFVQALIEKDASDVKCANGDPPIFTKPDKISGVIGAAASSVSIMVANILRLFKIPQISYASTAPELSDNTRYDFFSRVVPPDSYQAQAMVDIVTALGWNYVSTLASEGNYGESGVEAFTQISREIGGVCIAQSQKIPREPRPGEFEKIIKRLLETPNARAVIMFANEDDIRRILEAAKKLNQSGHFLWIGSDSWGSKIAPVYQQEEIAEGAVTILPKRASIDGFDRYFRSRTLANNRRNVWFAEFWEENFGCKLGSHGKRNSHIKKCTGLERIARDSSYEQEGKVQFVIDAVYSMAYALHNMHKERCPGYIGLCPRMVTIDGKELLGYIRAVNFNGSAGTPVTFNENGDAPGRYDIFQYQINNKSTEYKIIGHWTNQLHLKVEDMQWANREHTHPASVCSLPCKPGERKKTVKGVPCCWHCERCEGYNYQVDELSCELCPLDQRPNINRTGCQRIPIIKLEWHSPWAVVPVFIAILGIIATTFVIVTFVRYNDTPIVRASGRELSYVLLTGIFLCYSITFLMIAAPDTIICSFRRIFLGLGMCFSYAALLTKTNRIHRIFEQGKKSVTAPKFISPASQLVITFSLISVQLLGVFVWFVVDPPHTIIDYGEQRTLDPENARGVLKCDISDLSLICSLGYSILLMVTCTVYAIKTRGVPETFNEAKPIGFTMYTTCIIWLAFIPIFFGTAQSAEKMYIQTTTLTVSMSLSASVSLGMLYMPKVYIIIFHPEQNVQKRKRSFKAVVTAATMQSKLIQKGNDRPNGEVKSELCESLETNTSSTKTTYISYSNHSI
With `Cc1[nH]n(-c2ccccc2)c(=O)c1C=Nc1ccc2[nH]c(=O)[nH]c2c1`, the z-score was -0.336.
`CC(C)[C@H](NC(=O)NCCc1ccc(Cl)cc1)C(=O)O` had a z-score of 0.54.
For `COc1cccc(CC2CC(=O)N(CCc3ccc4c(c3)OCO4)C2=O)c1` (stereo not drawn) the value was -0.642; for `Cc1cccc(Oc2cc(N)cc([N+](=O)[O-])c2)c1`, -0.714; for `Cc1ccc(S(=O)(=O)Oc2ccc(/C=C(/NC(=O)c3ccccc3)C(=O)Nc3ccccc3)cc2)cc1`, -0.00665.
The result for `Nn1c(SCC(=O)N2CCCCCC2)nnc1-c1ccncc1` reads -0.448; that for `Cc1cc(S(=O)(=O)N2CCN(c3c(C)cccc3C)CC2)ccc1F`, 0.504.
Turning to `CC(C)c1nc(NCC2CCCO2)c(C#N)c2c1COC(C)(C)C2` (stereo not drawn), the z-score is -0.203.
The result for `S=c1[nH]nc(-c2ccccc2Cl)n1CC1CCCO1` (stereo not drawn) reads -0.238; that for `c1ccc(-n2ncc3c(NCC4CCCO4)ncnc32)cc1` (stereo not drawn), -0.419.
For `Cc1noc(C)c1S(=O)(=O)N1CCC2(CC1)OCCO2` the value was -0.239.
For `O=C(CSc1ccc(-c2ccccc2)nn1)c1ccccc1` the value was 0.0905; for `CC1CCCc2sc3nc(NCc4ccco4)n4ncnc4c3c21` (stereo not drawn), -1.17.
On to `Cc1ccccc1C(=O)O/N=C1\CCS(=O)(=O)c2sccc21`, for which the z-score was 0.103.
The result for `CCOC(=O)N1CCC(NC(=O)C2CCN(C(=O)N3CC(C)Oc4ccc(C)cc43)CC2)CC1` (stereo not drawn) reads 0.686; that for `COc1ccc(S(C)(=O)=O)cc1S(C)(=O)=O`, 0.196; that for `CCc1nc(SCC(=O)N2CCC(Cc3ccccc3)CC2)c2c(=O)n(C)c(=O)n(C)c2n1`, -0.415.
For `Cc1nc(Cl)c(C(=O)NC(C)(C)C)c(C)c1Cl` the value was 0.0125; for `COc1ccccc1NC(=O)NC(=O)N(C(C)C)S(C)(=O)=O`, -0.531; for `O=C(Cn1c(=O)oc2ccccc21)Nc1nc(-c2ccc(Br)cc2)cs1`, -0.455.
In the case of `CC(C)CNC(=S)NNC(=O)c1ccc(OC(F)F)cc1`, the z-score is -0.0885.
The result for `COc1ccc(-c2nc(C#N)c(N3CC(C)OC(C)C3)o2)cc1OC` (stereo not drawn) reads -0.128; that for `Cc1cc(N2CCN(C)CC2)nc2ccc(NC(=O)c3cccnc3Cl)cc12`, 0.503; that for `Nc1cc(=O)[nH]c(SCC(=O)Nc2ccc(Br)cc2)n1`, 0.115.
As for `CCc1nnc(NS(=O)(=O)c2ccc(NC(=S)NC(=O)/C=C/c3ccc(OC)cc3)cc2)s1`, the z-score is -0.407.
The result for `CC(=O)Nc1ccc(/C(C)=N/NC(=O)c2ccccc2Cl)cc1` reads -0.00163.
`Cc1ccc(-c2nsc(SCC(=O)Nc3ccc4c(c3)OCO4)n2)cc1` displayed a z-score of -0.102.
The result for `O=C(NCCCN1CCOCC1)c1cc(-c2cccs2)on1` reads 0.133; that for `O=C(Nc1ccc(Cl)c(C(F)(F)F)c1)C1CCCN(S(=O)(=O)c2cnc[nH]2)C1` (stereo not drawn), -0.239; that for `Cc1ccc(NCc2nnc(SCC(=O)N(Cc3ccccc3)C(C)(C)C)o2)c(C)c1`, -0.222.
`CCC(C(=O)O/N=C(\N)c1ccc(C)cc1)c1ccccc1` (stereo not drawn) gave a z-score of -0.567.
For `Cc1ccccc1-c1n[nH]c(=S)n1/N=C/c1c(C)nn(-c2ccccc2)c1C` the value was -0.239.
As to `COc1ccc(C(=O)Nc2nc3ccc4nc(C)sc4c3s2)cc1`, the z-score was -0.0988.
The compound `O=C1CSC(c2cccs2)N1c1ccccc1` (stereo not drawn) showed a z-score of -0.535.
As to `COC(=O)CSc1snnc1-c1ccc(Cl)cc1Cl`, the z-score was -0.636.
The result for `O=C(NC1CCCCC1)c1cc([N+](=O)[O-])ccc1N1CCCCC1` reads -0.0354; that for `COc1ccc(Cl)cc1Nc1nc(C)cc(=O)[nH]1`, 0.0899; that for `CC(C)CNc1nc(N)c([N+](=O)[O-])c(NCC2CCCO2)n1` (stereo not drawn), -0.387.
In the case of `COc1cccc(-c2nnc(-c3ccc(C)o3)o2)c1`, the z-score was -0.716.
In the case of `Cc1[nH]n(-c2ccccc2)c(=O)c1/C=N/NC(=O)c1ccoc1C`, the z-score came to 0.102.
On to `Cc1cc(NC(=O)CN2CC(C)OC(C)C2)n(-c2nc3ccccc3s2)n1` (stereo not drawn), for which the z-score was -0.352.
For `CC(=O)c1ccc(OCC(O)CN2CCN(CCO)CC2)cc1` (stereo not drawn) the value was -0.317.
As for `CCNC(=S)NNC(=O)c1cc(-c2cccc(C)c2)nc2ccccc12`, the z-score was 0.214.
`COc1ccc2nc(NC(=O)CCN3C(=O)c4ccccc4C3=O)sc2c1` registered a z-score of -0.0132.
The result for `O=C(CNC(=O)c1ccc(Cl)cc1)N/N=C/C=C/c1ccccc1` reads 0.787; that for `COc1cc(S(=O)(=O)NCCc2ccc3c(c2)OCO3)ccc1-n1cnnn1`, -0.733.
For `C=CCOC(=O)/C(=C\c1ccccc1)NC(=O)c1ccco1` the value was -0.214.
Turning to `O=C(Nc1ccc(Cl)cc1C(=O)NCc1cccnc1)c1ccco1`, the z-score was -0.0127.
The compound `CC1=NC(C(F)(F)F)(C(F)(F)F)C(C#N)=C(C)N1` gave a z-score of -0.0703.
The result for `O=c1[nH][nH]c(-c2ccccc2)c1C=Nc1ccc(Cl)cc1` reads -0.231; that for `O=C(CSCCO)Nc1cccc2ccccc12`, -0.204.
For `CCc1c(C)[nH]c2ccc(C)cc2c1=O` the value was -0.0673.
In turn, `CN(c1ccccc1)S(=O)(=O)c1cccc(NC(=O)CSc2nnc(N)s2)c1` showed a z-score of -0.275.
Turning to `CCCCOc1ccc(Nc2nc(C)cc(C)c2C#N)cc1`, the z-score worked out at 0.234.
For `Cc1c(C)c2ccc(OCC(=O)N(C)C)c(C)c2oc1=O` the value was -0.421.
`O=C(COC(=O)c1cc([N+](=O)[O-])ccc1NCCO)c1ccc(Cl)cc1` had a z-score of 0.0834.
The result for `CCN1CCN(C(=O)Nc2ccccc2OC)CC1` reads 0.443.
The result for `CCc1ccccc1NC(=O)N[C@H](C(=O)O)C(C)CC` (stereo partly drawn) reads -0.0637.
The result for `Cc1ccccc1-n1c(C)cc(/C=N/Nc2ccc([N+](=O)[O-])cn2)c1C` reads 0.435.
For the compound `COc1cc(SC)ccc1C(=O)Nc1ccccc1`, the z-score was -0.582.
The result for `Cc1sc2c(c1C)c(=O)nc1n2Cc2ccccc2-1` reads 0.174.
The result for `CCc1ccc(C(=O)NC(=S)Nc2ccc3c(c2)OCCO3)cc1` reads 0.946.
As to `COc1cc2c(cc1OC)C(c1ccncc1)CC(=O)N2` (stereo not drawn), the z-score came out at 0.215.
For `Cc1cccc(NS(=O)(=O)c2ccc(C3CCCCC3)cc2)n1` the value was 0.108; for `COc1ccc(-c2noc(C3CCCN(S(=O)(=O)c4cccc(Cl)c4)C3)n2)cc1OC` (stereo not drawn), 0.0265.
The result for `O=C(Oc1cccc2c(OC(=O)N3CCOCC3)cccc12)N1CCOCC1` reads -0.205.
The result for `O=C1NC(=S)N/C1=C\c1cccc([N+](=O)[O-])c1` reads 0.776; that for `COC(=O)CSc1nnc(CNC(=O)Cc2ccccc2)n1C`, -0.397; that for `COC(=O)c1ccc(Oc2ccc3nncn3n2)cc1`, -0.148.
Take `CNC(=O)c1cc2cc(Cl)cc(OC)c2oc1=O`: the z-score was -0.116.
The result for `Oc1ccc(Br)cc1-c1cc(-c2ccc(Cl)cc2)n[nH]1` reads 0.0892.
The result for `CCOC(=O)c1c(NC(=O)Cn2nc([N+](=O)[O-])c(Br)c2C)sc2c1CCC(C)C2` (stereo not drawn) reads 0.483.
The result for `O=C(Nc1c(F)cc(F)cc1Br)c1ccco1` reads 0.609; that for `Cc1ccc(SCCNC(=S)Nc2cc(C)ccc2C)cc1`, -0.215.
`Oc1c(C=C2N=c3ccccc3=N2)sc(=S)n1-c1ccc(F)cc1` registered a z-score of 0.283.
`CC1CCN(C(=O)CSc2nnc(-c3ccc(S(=O)(=O)N4CCOCC4)cc3)n2C)CC1` had a z-score of 0.855.
As to `CC(C)(C)c1[nH]nc2c1C(c1ccncc1)C(C#N)=C(N)O2` (stereo not drawn), the z-score was -0.619.
The result for `O=C(O)/C=C\C(=O)Nc1ccccc1F` reads 0.0594; that for `COc1ccc(NC(=O)CCC(=O)OCc2ccc(C(=O)Oc3ccc(Cl)cc3)cc2)cc1`, -0.22; that for `COc1ccc(C(=O)CSc2nnc(CNc3nc(-c4ccccc4)cs3)n2C)cc1`, -0.0858.
For `O=C(CSc1ccccn1)N1CCN(c2cccc(Cl)c2)CC1` the value was -0.00977; for `COC(=O)c1cc(NC(=O)c2ccoc2C)cc(C(=O)OC)c1`, active: 4.89.
The result for `Cc1nn(-c2ccccc2)c(N)c1N=Nc1ccccc1` reads -0.356.
With `Cc1ccc(N=Nc2c(N)[nH]n3c(=O)cc(C)nc23)cc1`, the z-score is -0.294.
The result for `O=C(c1cc2c(s1)CCCC2)N1CCN(Cc2ccc3c(c2)OCO3)CC1` reads -0.76; that for `Cc1ccc(S(=O)(=O)N(C)Cc2nc(-c3ccc(Br)cc3)no2)cc1`, -0.28; that for `Cc1cc(=O)n2nc(N3CCCC(C(=O)NC(C)c4ccccc4)C3)sc2n1` (stereo not drawn), -0.086.
`CC(C)(C)c1cc2cccnc2n1Cc1cccc(Cl)c1` yielded a z-score of -0.113.
`Cc1onc(-c2ccccc2)c1C(=O)n1cc(Br)cn1` came in with a z-score of -0.588.
For `CC(C)Cn1c(-c2ccccc2F)n[nH]c1=S` the value was 0.078; for `COc1ccc(S(=O)(=O)N2CCC[C@H]2C(=O)NC2=NCCS2)cc1`, -0.0506; for `CCc1nnc(NC(=O)[C@@H](NC(=O)c2cccc(S(=O)(=O)N3CCOCC3)c2)C(C)C)s1`, -0.734.
The result for `CC1Cc2ccccc2N1C(=O)c1ccc2snnc2c1` (stereo not drawn) reads -1.46.
Consider `CCCC1=C(C(=O)OCC)C(c2ccc(O)cc2)n2ncnc2N1` (stereo not drawn), for which the z-score was -1.1.
As for `CC(C)OCCCNC(=O)c1sc(=S)n(C)c1N`, the z-score is -0.0619.
For `COc1ccc2[nH]c(C)c(CCN3C(=O)C4C5C=CC(C5)C4C3=O)c2c1` (stereo not drawn) the value was -0.454; for `Oc1[nH]c2ccccc2c1C=Nc1ccc2c(c1)OCCO2`, 0.883; for `O=C1CSC(c2cccc(Cl)c2Cl)N1c1ccccn1` (stereo not drawn), 0.398.
The compound `CCn1c(C)nc2cc(C(=O)NNS(=O)(=O)c3c(C)c(C)cc(C)c3C)ccc21` registered a z-score of -0.328.
The result for `COc1cc(CN2CC(=O)N(c3ccc(C)c(C)c3)C2=S)cc(OC)c1OC` reads -0.981; that for `Cc1ccc(/C(N)=N/OC(=O)c2ccc(F)cc2)cc1`, -0.0315; that for `CC1=NN(c2nc(-c3ccc(C)cc3)cs2)C(=O)C1N=Nc1ccc2ccccc2c1` (stereo not drawn), 0.0348.
Take `CC(C)Nc1nc(NC(C)C)nc(N(C)N)n1`: the z-score was -0.143.
For `O=C(O)c1cccc(S(=O)(=O)N2CCOCC2)c1` the value was 0.438; for `COc1cc(C(=O)N2CCN(C(=O)COc3ccc4ccccc4c3)CC2)cc(OC)c1OC`, 0.348.
With `Cc1ccn2c(C(=O)c3ccc(Cl)cc3)cnc2c1`, the z-score was found to be 0.282.
The result for `Cc1ccccc1SCc1noc(C(=O)NC(C)C)c1C(=O)O` reads -0.223; that for `CCCN1C(=O)/C(=C\c2ccncc2)SC1=Nc1ccccc1`, 0.523.
The result for `C=CCn1c(NCCc2ccccc2)nc2c1c(=O)n(C)c(=O)n2C` reads 0.0292; that for `c1ccc2c(c1)CCN(c1nc3ccccc3n3cnnc13)C2`, -0.508.
The result for `O=C(NCc1ccc(Cl)cc1)c1ccc(COCC(F)(F)F)o1` reads -0.172; that for `CCN(CC)C(=O)CSc1nc2c(sc(=S)n2-c2ccccc2)c(=O)n1Cc1ccco1`, -0.562.
On to `O=S(=O)(c1ccc(Cl)cc1)c1cnc(-c2cccnc2)nc1-c1ccccc1`, for which the z-score was -0.132.
